The supplement of paper PMC8728848
This is one part of the list.

Legend:
Test in all cases: glycan array binding signal (z-score within array); higher = stronger binding
Conditions in all cases: glycan notation: IUPAC condensed, linker removed
[1] = molecular target: Neu5Ac(a2-3)Gal(b1-4)GlcNAc(b1-2)[Neu5Ac(a2-3)Gal(b1-4)GlcNAc(b1-6)]Man(a1-6)[Neu5Ac(a2-3)Gal(b1-4)GlcNAc(b1-2)Man(a1-3)]Man(b1-4)GlcNAc(b1-4)GlcNAc
Procedure, shortened: (§1)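 Glycan array data were curated from 3228 arrays in the Consortium for Functional Glycomics database and kept only where the protein sequence was available. Glycan names were converted to IUPAC-condensed notation, and columns mapping to the same glycan were averaged. The binding signal is a within-array Z-score, averaged across arrays of the same protein sequence at different concentrations or buffers and across linkers. Negative Z-scores can be read as non-binding.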

[2] = molecular target: Neu5Ac(a2-3)Gal(b1-4)GlcNAc(b1-2)[Neu5Ac(a2-3)Gal(b1-4)GlcNAc(b1-6)]Man(a1-6)[Neu5Ac(a2-3)Gal(b1-4)GlcNAc(b1-2)Man(a1-3)][GlcNAc(b1-4)]Man(b1-4)GlcNAc(b1-4)GlcNAc
Procedure, shortened: as §1

[3] = molecular target: Neu5Ac(a2-3)Gal(b1-4)GlcNAc(b1-3)Gal
Procedure, shortened: as §1

[4] = molecular target: Neu5Ac(a2-3)Gal(b1-4)GlcNAc(b1-3)Gal(b1-3)GlcNAc
Procedure, shortened: as §1

[5] = molecular target: Neu5Ac(a2-3)Gal(b1-4)GlcNAc(b1-3)Gal(b1-4)GlcNAc
Procedure, shortened: as §1

[6] = molecular target: Neu5Ac(a2-3)Gal(b1-4)GlcNAc(b1-3)Gal(b1-4)GlcNAc(b1-2)Man(a1-3)[Neu5Ac(a2-3)Gal(b1-4)GlcNAc(b1-3)Gal(b1-4)GlcNAc(b1-2)Man(a1-6)]Man(b1-4)GlcNAc(b1-4)GlcNAc
Procedure, shortened: as §1

[7] = molecular target: Neu5Ac(a2-3)Gal(b1-4)GlcNAc(b1-3)Gal(b1-4)GlcNAc(b1-3)Gal(b1-4)GlcNAc
Procedure, shortened: as §1

[8] = molecular target: Neu5Ac(a2-3)Gal(b1-4)GlcNAc(b1-3)Gal(b1-4)GlcNAc(b1-3)Gal(b1-4)GlcNAc(b1-2)Man(a1-3)[Neu5Ac(a2-3)Gal(b1-4)GlcNAc(b1-3)Gal(b1-4)GlcNAc(b1-3)Gal(b1-4)GlcNAc(b1-2)Man(a1-6)]GalNAc
Procedure, shortened: as §1

[9] = molecular target: Neu5Ac(a2-3)Gal(b1-4)GlcNAc(b1-3)Gal(b1-4)GlcNAc(b1-3)GalNAc
Procedure, shortened: as §1

[10] = molecular target: Neu5Ac(a2-3)Gal(b1-4)GlcNAc(b1-3)Gal(b1-4)GlcNAc(b1-3)[Neu5Ac(a2-3)Gal(b1-4)GlcNAc(b1-3)Gal(b1-4)GlcNAc(b1-6)]GalNAc
Procedure, shortened: as §1

[11] = molecular target: Neu5Ac(a2-3)Gal(b1-4)GlcNAc(b1-3)Gal(b1-4)GlcNAc(b1-6)[Gal(b1-3)]GalNAc
Procedure, shortened: as §1

[12] = molecular target: Neu5Ac(a2-3)Gal(b1-4)GlcNAc(b1-3)Gal(b1-4)[Fuc(a1-3)]GlcNAc
Procedure, shortened: as §1

[13] = molecular target: Neu5Ac(a2-3)Gal(b1-4)GlcNAc(b1-3)GalNAc
Procedure, shortened: as §1

[14] = molecular target: Neu5Ac(a2-3)Gal(b1-4)GlcNAc(b1-3)[Neu5Ac(a2-3)Gal(b1-4)GlcNAc(b1-6)]GalNAc
Procedure, shortened: as §1

[15] = molecular target: Neu5Ac(a2-3)Gal(b1-4)GlcNAc(b1-6)GalNAc
Procedure, shortened: as §1

[16] = molecular target: Neu5Ac(a2-3)Gal(b1-4)GlcNAc(b1-6)[Gal(b1-3)]GalNAc
Procedure, shortened: as §1

[17] = molecular target: Neu5Ac(a2-3)Gal(b1-4)GlcNAc(b1-6)[Neu5Ac(a2-3)Gal(b1-3)]GalNAc
Procedure, shortened: as §1

[18] = molecular target: Neu5Ac(a2-3)Gal(b1-4)GlcNAc6S
Procedure, shortened: as §1

[19] = molecular target: Neu5Ac(a2-3)Gal(b1-4)[Fuc(a1-3)]GlcNAc
Procedure, shortened: as §1

[20] = molecular target: Neu5Ac(a2-3)Gal(b1-4)[Fuc(a1-3)]GlcNAc(b1-2)Man
Procedure, shortened: as §1

[21] = molecular target: Neu5Ac(a2-3)Gal(b1-4)[Fuc(a1-3)]GlcNAc(b1-3)Gal
Procedure, shortened: as §1

[22] = molecular target: Neu5Ac(a2-3)Gal(b1-4)[Fuc(a1-3)]GlcNAc(b1-3)Gal(b1-4)GlcNAc
Procedure, shortened: as §1

[23] = molecular target: Neu5Ac(a2-3)Gal(b1-4)[Fuc(a1-3)]GlcNAc(b1-3)Gal(b1-4)[Fuc(a1-3)]GlcNAc(b1-3)Gal(b1-4)[Fuc(a1-3)]GlcNAc
Procedure, shortened: as §1

[24] = molecular target: Neu5Ac(a2-3)Gal(b1-4)[Fuc(a1-3)]GlcNAc(b1-3)GalNAc
Procedure, shortened: as §1

[25] = molecular target: Neu5Ac(a2-3)Gal(b1-4)[Fuc(a1-3)]GlcNAc(b1-6)[Gal(b1-3)]GalNAc
Procedure, shortened: as §1

[26] = molecular target: Neu5Ac(a2-3)Gal(b1-4)[Fuc(a1-3)]GlcNAc(b1-6)[Neu5Ac(a2-3)Gal(b1-3)]GalNAc
Procedure, shortened: as §1

[27] = molecular target: Neu5Ac(a2-3)Gal(b1-4)[Fuc(a1-3)]GlcNAc6S
Procedure, shortened: as §1

[28] = molecular target: Neu5Ac(a2-3)Gal6S(b1-4)GlcNAc
Procedure, shortened: as §1

[29] = molecular target: Neu5Ac(a2-3)Gal6S(b1-4)[Fuc(a1-3)]GlcNAc
Procedure, shortened: as §1

Neu5Ac(a2-3)GalNAc = molecular target: Neu5Ac(a2-3)GalNAc
Procedure, shortened: as §1

[30] = molecular target: Neu5Ac(a2-3)GalNAc(b1-4)GlcNAc
Procedure, shortened: as §1

[31] = molecular target: Neu5Ac(a2-3)[GalNAc(b1-4)]Gal(b1-4)Glc
Procedure, shortened: as §1

[32] = molecular target: Neu5Ac(a2-3)[GalNAc(b1-4)]Gal(b1-4)GlcNAc
Procedure, shortened: as §1

[33] = molecular target: Neu5Ac(a2-3)[GalNAc(b1-4)]Gal(b1-4)GlcNAc(b1-3)GalNAc
Procedure, shortened: as §1

[34] = molecular target: Neu5Ac(a2-3)[Neu5Ac(a2-6)]GalNAc
Procedure, shortened: as §1

Neu5Ac(a2-6)Gal = molecular target: Neu5Ac(a2-6)Gal
Procedure, shortened: as §1

[35] = molecular target: Neu5Ac(a2-6)Gal(b1-3)GlcNAc(b1-3)[Gal(b1-4)GlcNAc(b1-6)]Gal(b1-4)Glc
Procedure, shortened: as §1

Neu5Ac(a2-6)Gal(b1-4)Glc = molecular target: Neu5Ac(a2-6)Gal(b1-4)Glc
Procedure, shortened: as §1

[36] = molecular target: Neu5Ac(a2-6)Gal(b1-4)GlcNAc
Procedure, shortened: as §1

[37] = molecular target: Neu5Ac(a2-6)Gal(b1-4)GlcNAc(b1-2)Man
Procedure, shortened: as §1

[38] = molecular target: Neu5Ac(a2-6)Gal(b1-4)GlcNAc(b1-2)Man(a1-3)Man(b1-4)GlcNAc(b1-4)GlcNAc
Procedure, shortened: as §1

[39] = molecular target: Neu5Ac(a2-6)Gal(b1-4)GlcNAc(b1-2)Man(a1-3)[Gal(b1-4)GlcNAc(b1-2)Man(a1-6)]Man(b1-4)GlcNAc(b1-4)GlcNAc
Procedure, shortened: as §1

[40] = molecular target: Neu5Ac(a2-6)Gal(b1-4)GlcNAc(b1-2)Man(a1-3)[GlcNAc(b1-2)Man(a1-6)]Man(b1-4)GlcNAc(b1-4)GlcNAc
Procedure, shortened: as §1

[41] = molecular target: Neu5Ac(a2-6)Gal(b1-4)GlcNAc(b1-2)Man(a1-3)[GlcNAc(b1-4)][Neu5Ac(a2-6)Gal(b1-4)GlcNAc(b1-2)Man(a1-6)]Man(b1-4)GlcNAc(b1-4)GlcNAc
Procedure, shortened: as §1

[42] = molecular target: Neu5Ac(a2-6)Gal(b1-4)GlcNAc(b1-2)Man(a1-3)[Man(a1-6)]Man(b1-4)GlcNAc(b1-4)GlcNAc
Procedure, shortened: as §1

B1: FliD (Clostridium difficile) (protein)
chain: MSSISPVRVTGLSGNFDMEGIIEASMIRDKEKVNKAKQDQQIVKWKQEIYRDIIKESKNLYDKYLNGDSPNSITNKKAYSATRITSSDESIIVAKGSAGAEKINYQFAVSQMAEPAKVTIKLNSSDPIVQQFPPNASGASSLNIGGVNIPISEQDTTSTIVSKINSLCADNDIRASYSEMTGELIISRKQTGSSSDIDLKVIGNDSLAGQIASDNGITFTTDASGTKSAVVYGKNLEADVTDDQGRVTHISKEQNSFKIDNIDYNVNSKGSAKLVSVTDTEEATKNMKAFVDDYNALMDKVYGLVTTKKSKDYPPLTDEQKDDMTTEEIEKWEKKAKEGILRNDDELRAFVEDIQSMFFGDADTIIALRKLGISEHENYNKKGQISFNADTFSKALIDDSDKVYKALAGYSSNYDDKGMFEKLKKIVFEYSGSSASKLTKKAGMENSSSASQNVYSKQIAEQERNISRLVEKMNDKEKRLYAKYSALESLLNKYSSQMNYFSQAQGN
[1]
  glycan array binding signal (z-score): -0.056
[2]
  glycan array binding signal (z-score): -0.251
[3]
  glycan array binding signal (z-score): -0.185
[4]
  glycan array binding signal (z-score): -0.249
[5]
  glycan array binding signal (z-score): -0.084
[6]
  glycan array binding signal (z-score): -0.025
[7]
  glycan array binding signal (z-score): -0.216
[8]
  glycan array binding signal (z-score): -0.015
[9]
  glycan array binding signal (z-score): -0.241
[10]
  glycan array binding signal (z-score): -0.188
[11]
  glycan array binding signal (z-score): -0.254
[12]
  glycan array binding signal (z-score): -0.255
[13]
  glycan array binding signal (z-score): -0.208
[14]
  glycan array binding signal (z-score): -0.285
[15]
  glycan array binding signal (z-score): -0.272
[16]
  glycan array binding signal (z-score): -0.138
[17]
  glycan array binding signal (z-score): -0.061
[18]
  glycan array binding signal (z-score): -0.289
[19]
  glycan array binding signal (z-score): -0.199
[20]
  glycan array binding signal (z-score): -0.222
[21]
  glycan array binding signal (z-score): -0.196
[22]
  glycan array binding signal (z-score): 0.018
[23]
  glycan array binding signal (z-score): -0.242
[24]
  glycan array binding signal (z-score): -0.101
[25]
  glycan array binding signal (z-score): -0.233
[26]
  glycan array binding signal (z-score): -0.17
[27]
  glycan array binding signal (z-score): -0.269
[28]
  glycan array binding signal (z-score): -0.213
[29]
  glycan array binding signal (z-score): -0.291
Neu5Ac(a2-3)GalNAc
  glycan array binding signal (z-score): 1.09
[30]
  glycan array binding signal (z-score): -0.144
[31]
  glycan array binding signal (z-score): -0.264
[32]
  glycan array binding signal (z-score): -0.279
[33]
  glycan array binding signal (z-score): 0.016
[34]
  glycan array binding signal (z-score): -0.226
Neu5Ac(a2-6)Gal
  glycan array binding signal (z-score): -0.156
[35]
  glycan array binding signal (z-score): -0.197
Neu5Ac(a2-6)Gal(b1-4)Glc
  glycan array binding signal (z-score): -0.116
[36]
  glycan array binding signal (z-score): -0.197
[37]
  glycan array binding signal (z-score): -0.21
[38]
  glycan array binding signal (z-score): -0.227
[39]
  glycan array binding signal (z-score): -0.163
[40]
  glycan array binding signal (z-score): -0.223
[41]
  glycan array binding signal (z-score): -0.165
[42]
  glycan array binding signal (z-score): -0.232
